# Reference: PubChem BioAssay (Tox21)
# The shares of active, inactive and inconclusive entries below differ from those in the screen. A potency beside an inconclusive call is a rough fit, not a confirmed value. A structure can be active in one record and inactive in another. Activity calls are given as the source filed them. The call rests on the fitted dose curve; in most records, active means well fitted curve in the direction sought with a large enough effect in the repeat runs; inconclusive means weak or mixed curves; inactive means no such curve, though single readings can be large; an effect the other way counts as inactive or inconclusive.
# Target: Aryl hydrocarbon receptor (Homo sapiens) (UniProt P35869)
# Sequence of UniProt P35869 (P35869 whole entry, looked up): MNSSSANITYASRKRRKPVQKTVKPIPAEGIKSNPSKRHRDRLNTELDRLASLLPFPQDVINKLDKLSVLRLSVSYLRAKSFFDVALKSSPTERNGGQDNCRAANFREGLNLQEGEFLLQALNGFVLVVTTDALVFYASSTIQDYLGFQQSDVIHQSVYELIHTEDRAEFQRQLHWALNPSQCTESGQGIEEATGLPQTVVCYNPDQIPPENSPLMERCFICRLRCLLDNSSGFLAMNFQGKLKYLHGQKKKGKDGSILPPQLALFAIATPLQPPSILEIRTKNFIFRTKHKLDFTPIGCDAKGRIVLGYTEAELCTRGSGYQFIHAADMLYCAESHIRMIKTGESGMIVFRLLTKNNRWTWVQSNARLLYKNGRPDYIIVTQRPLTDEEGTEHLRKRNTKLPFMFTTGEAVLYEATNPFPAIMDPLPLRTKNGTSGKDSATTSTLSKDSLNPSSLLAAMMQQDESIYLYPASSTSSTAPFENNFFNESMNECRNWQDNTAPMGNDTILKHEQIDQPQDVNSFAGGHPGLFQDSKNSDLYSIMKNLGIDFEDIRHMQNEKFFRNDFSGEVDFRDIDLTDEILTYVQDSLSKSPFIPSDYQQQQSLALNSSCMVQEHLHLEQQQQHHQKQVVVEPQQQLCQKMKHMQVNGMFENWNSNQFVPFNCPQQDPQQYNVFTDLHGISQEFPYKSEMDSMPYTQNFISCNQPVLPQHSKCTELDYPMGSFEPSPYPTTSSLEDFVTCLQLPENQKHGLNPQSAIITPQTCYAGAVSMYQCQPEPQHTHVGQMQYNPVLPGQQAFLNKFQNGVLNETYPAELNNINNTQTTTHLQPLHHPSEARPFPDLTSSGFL
# Experiment: qHTS assay to identify small molecule that activate the aryl hydrocarbon receptor (AhR) signaling pathway (AID 743085); further: nearly all actives have a fitted effect of over 15% in size
# Settings: HepG2 AhR-luc (HG2L7.5c1), luciferase, 24 h; series mostly up to 70.3 µM
# Procedure, shortened: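 Stably transfected human liver carcinoma cells (HG2L7.5c1; 20 DRE-firefly luciferase) were incubated 5 h, dosed, and kept 24 h at 37C. Agonism was scored from increased luciferase luminescence.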
# Potency means the concentration at half of the fitted maximal effect; tags describe the fitted curve by direction and shape.
row,Compound,Potency
1,Nc1ccc(C(=O)OCCCOC(=O)c2ccc(N)cc2)cc1,"inconclusive: 61.1 µM [activator, partial curve]"
2,CCOc1cc(OCC)c(C(C)=O)cc1OCC,"inconclusive: 23.9 µM [activator, partial curve]"
3,Oc1ccc(/C=C/c2cc(O)cc(O)c2)cc1,"inconclusive: 8.63 µM [activator, partial curve]"
4,O=C1CCCc2ccccc21,inconclusive: 30.9 µM [activator]
5,Cc1ccc(/C(=C\CN2CCCC2)c2ccccn2)cc1,inactive
6,CCCCCCCCCCCBr,"inconclusive: 21.4 µM [activator, partial curve]"

# Test system: not listed separately
# Experiment: qHTS assay to identify small molecule that activate the aryl hydrocarbon receptor (AhR) signaling pathway - cell viability counter screen (AID 743086); further: nearly all actives have a fitted effect of over 45% in size
# Settings: HepG2-AhR-luc viability, CellTiter-Fluor, 24 h; series mostly up to 70.3 µM
# Procedure, shortened: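 HepG2-AhR-luc (HG2L7.5c1) cells, 4000/well, were preincubated 5 h at 37C, exposed to compound in qHTS format for 24 hr at 37C, then given CellTiter-Fluor for 30 min; viability was read as fluorescence in the reporter wells.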
row,Compound,Potency
1,c1cnc2cc3c(cc2n1)C1CNCC3C1,"inconclusive: 82.6 µM [falling, single point]"
2,NC(=O)Cn1c(=O)cc(CCN2CCN(c3nccc4sccc34)CC2)c2ccc(F)cc21,"inconclusive: 68.6 µM [falling, single point]"
3,O=P(OC(CCl)CCl)(OC(CCl)CCl)OC(CCl)CCl,"inconclusive: 68.2 µM [falling, single point]"
4,CCN1CCCC1=O,"inconclusive: 68.2 µM [rising, partial curve, poor fit]"
5,CO[C@@H]1[C@@H](O[C@@H]2O[C@H](C)[C@@H](O[C@H]3C[C@@](C)(O)[C@@H](O)[C@H](C)O3)[C@H](N(C)C)[C@H]2O)[C@@H](CC=O)C[C@@H](C)[C@@H](O[C@@H]2CC[C@H](N(C)C)[C@@H](C)O2)/C=C/C=C/C[C@@H](C)OC(=O)C[C@H]1OC(C)=O,"inconclusive: 29.8 µM [falling, single point]"
